# Reference: publication PMC4336329 (PLoS ONE, 2015)
# Among all 310,000 compounds or so, about 2,200 (0.71%) showed an effect of 50% or more. Effects have a minus sign here. This is one part of the list.
# Molecular target: human ether-à-go-go-related gene (hERG) potassium channel (human, UniProt Q12809)
# Assay: primary screen, population patch clamp on CHO cells stably expressing hERG
# Chain of human ether-à-go-go-related gene (hERG) potassium channel (Q12809 whole entry, looked up): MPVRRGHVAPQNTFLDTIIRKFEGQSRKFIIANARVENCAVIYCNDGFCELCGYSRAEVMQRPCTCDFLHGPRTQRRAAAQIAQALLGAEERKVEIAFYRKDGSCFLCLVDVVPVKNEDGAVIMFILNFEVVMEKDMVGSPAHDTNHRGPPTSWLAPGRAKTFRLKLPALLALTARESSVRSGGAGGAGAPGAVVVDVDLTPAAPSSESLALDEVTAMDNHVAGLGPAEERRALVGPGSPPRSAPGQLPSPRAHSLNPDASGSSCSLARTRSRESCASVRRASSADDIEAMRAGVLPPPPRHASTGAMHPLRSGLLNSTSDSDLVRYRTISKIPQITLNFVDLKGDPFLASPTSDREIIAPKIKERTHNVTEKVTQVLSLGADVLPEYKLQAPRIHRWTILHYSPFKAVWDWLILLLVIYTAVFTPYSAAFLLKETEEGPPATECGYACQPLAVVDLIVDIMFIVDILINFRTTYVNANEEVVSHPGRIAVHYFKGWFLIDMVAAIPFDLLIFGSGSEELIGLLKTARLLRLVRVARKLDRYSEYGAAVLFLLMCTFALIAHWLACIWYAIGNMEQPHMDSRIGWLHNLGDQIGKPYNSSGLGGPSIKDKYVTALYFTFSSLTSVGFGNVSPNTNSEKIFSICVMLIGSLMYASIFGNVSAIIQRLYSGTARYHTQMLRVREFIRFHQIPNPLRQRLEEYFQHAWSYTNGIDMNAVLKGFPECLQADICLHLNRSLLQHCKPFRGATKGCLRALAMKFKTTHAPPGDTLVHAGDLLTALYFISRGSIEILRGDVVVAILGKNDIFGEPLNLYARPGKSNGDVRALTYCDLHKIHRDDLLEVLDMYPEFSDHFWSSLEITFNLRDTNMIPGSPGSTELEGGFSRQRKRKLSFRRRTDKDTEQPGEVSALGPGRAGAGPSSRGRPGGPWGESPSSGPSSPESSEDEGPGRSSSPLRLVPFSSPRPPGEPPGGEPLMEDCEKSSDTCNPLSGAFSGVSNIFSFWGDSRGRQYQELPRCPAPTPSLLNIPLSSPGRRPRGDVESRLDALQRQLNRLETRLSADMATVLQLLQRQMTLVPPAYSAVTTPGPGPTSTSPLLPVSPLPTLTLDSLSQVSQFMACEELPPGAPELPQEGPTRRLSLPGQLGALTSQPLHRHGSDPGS
row,Structure (SMILES),"hERG current change (%, negative = inhibition) at 1uM"
1,COc1ccc(CN2C(=O)N(c3ccc(OC)cc3)C(=O)C2CC(=O)Nc2ccccc2)cc1 (stereo not shown),12.2%
2,N#C/C(=C(/O)COC(=O)c1ccc(C#N)cc1)c1nc2ccccc2s1,9.64%
3,CC(C)CC(=O)NC(NC(=S)Nc1sc2c(c1C#N)CCCC2)C(Cl)(Cl)Cl (stereo not shown),12.7%
4,CCCCCC1CC(CC(=O)Nc2nncs2)C(=O)O1 (stereo not shown),8.87%
5,CCCCC(C(=O)O)C(C)CC(=O)Nc1cccc(C(=O)O)c1 (stereo not shown),3.02%
6,COc1ccccc1CNC(=O)C1CCCN(S(=O)(=O)c2cccc3nonc23)C1 (stereo not shown),6.1%
7,CCCCOC(=O)c1ccc(NC(=O)c2cc(Cl)c(Cl)cc2C(=O)O)cc1,2.68%
8,CCOc1ccc(S(=O)(=O)N2CCN(Cc3ccc4c(c3)OCO4)CC2)cc1C,6.2%
9,COc1ccccc1CNC(=O)c1c(-c2ccccc2Cl)noc1C,5.85%
10,O=C(CN1CCN(c2ccccc2O)CC1)NCCCc1ccccc1,6.98%
11,Cn1nc(C(F)(F)F)c2cc(C(=O)NC3CC3)sc21,5.65%
12,CC(/C=N\NC(=O)c1cc(C)oc1C)=C\c1ccccc1,16.5%
13,COc1ccc(OCc2cc(C(=O)N(Cc3nccn3C)C(C)C)no2)c2ccccc12,9.57%
14,COC(=O)c1ccc(NC(=O)CCc2nnc3ccc(NCc4ccco4)nn23)cc1,18.3%
15,COc1ccc(/C=C2/Sc3ccc(C(=O)NCCN4CCCCCC4)cc3NC2=O)cc1,11.4%
16,NS(=O)(=O)c1ccc(CCNC(=O)/C=C/c2cccc([N+](=O)[O-])c2)cc1,-1.11%
17,CCOC(=O)C1=C(C)NC(=O)NC1c1ccc(OCC(N)=O)cc1 (stereo not shown),6.27%
18,O=C1c2ccccc2NC(c2ccc(O)cc2)N1Cc1ccco1 (stereo not shown),-6.07%
19,COCCN(Cc1cc2ccc(C)c(C)c2nc1Cl)C(=O)N1CCOCC1,3.39%
20,CN(Cc1ccccc1)C(=O)CNC(=O)C12CC3CC(CC(C3)C1)C2,-0.479%
21,CC(C)(C)c1ccc(O)c(CN2CCN(c3ccccc3)CC2)c1,17.8%
22,CCOc1ccc(C2C(C(=O)Nc3ccccc3)=C(C)N=c3s/c(=C/c4cccc(OCC(=O)O)c4)c(=O)n32)cc1 (stereo not shown),6.93%

row,Structure (SMILES),"hERG current change (%, negative = inhibition) at 1uM"
1,COc1ccc(C2=NN(C(=O)CSc3nc(=O)n4cccc(C)c4n3)C(c3ccc(C)cc3)C2)cc1 (stereo not shown),9.55%
2,COC(=O)Cc1ccc(OCC(=O)Nc2ccc(OC(F)(F)F)cc2)cc1,9.64%
3,Cc1ccc2cccc(N=Cc3c(C)[nH]n(-c4ccccc4)c3=O)c2n1,11.4%
4,O=C1C[C@@H](c2ccc(O)cc2)Oc2cc(O)cc(O)c21,8.66%
5,CCn1cc(C(=O)NCCO)c(=O)c2cc(F)c(N3CCN(C)CC3)cc21.Cl,-2.33%
6,CS(=O)(=O)c1ccc(Cl)c(NC(=O)COC(=O)c2ncc(Cl)c(Cl)c2Cl)c1,8.1%
7,CN(Cc1ccnc2ccccc12)C(=O)C1CCC(=O)N(Cc2ccccc2F)C1 (stereo not shown),5.4%
8,CC1(CCc2ccccc2)NC(=O)N(CC(=O)N2CCCCCC2)C1=O (stereo not shown),6.78%
9,COc1cc(Cl)c(C)cc1NC(=O)CNC(=O)Cn1cnc2ccccc2c1=O,8.76%
10,O=C(Nc1ccccc1)C1CC(=O)n2c(nc3ccccc32)N1 (stereo not shown),10.7%
11,COc1ccc(/C=N/NC(=S)Nc2ccccc2)cc1COc1ccccc1F,4.31%
12,O=C(O)c1cc2cc(Cl)ccc2oc1=O,10.3%
13,COC(=O)Nc1ncc(CN2CCc3ccccc3C2)s1,-14.7%
14,Cc1c(Cl)c([N+](=O)[O-])nn1CC(=O)NC(C)C1CC2CCC1C2 (stereo not shown),-1.62%
15,Cc1ccc(N2C(=O)[C@@H]3[C@H](C2=O)[C@H]2C=C(C(=O)c4ccccc4)C=CN2[C@@H]3C(=O)c2ccc(Cl)cc2)cc1,10.2%
16,O=C(Nc1ccccc1)c1ccccc1NC(=O)C1CCCCC1,13.3%
17,COc1ccccc1NC(=O)c1ccc(NC(=O)c2nc3nccc(C)n3n2)cc1,13.1%
18,Nn1cnnc1SCC(=O)Nc1ccc2c(c1)OCO2,6.71%
19,CC(C)(C)NC(=S)NC(=O)C12CC3CCC(CC(C3)C1)C2,10.6%
20,CCOc1ccc(N(C(=O)c2cnsn2)C(C(=O)NC2CCCCC2)c2ccncc2)cc1 (stereo not shown),-52.1%
21,CC(=O)C1C(c2ccc(Cl)cc2)NC(=O)NC1(O)C(F)(F)F (stereo not shown),15.4%
22,CCOC(=O)c1cnc2c(-c3ccccc3)cnn2c1N,16.6%

row,Structure (SMILES),"hERG current change (%, negative = inhibition) at 1uM"
1,CCC(ONc1ccccc1C(F)(F)F)(C(=O)NN(C)C)c1ccccc1 (stereo not shown),12.2%
2,O=C(CSc1nnc(-c2ccccc2)o1)Nn1cnnc1,-4.31%
3,CCOc1ccc(C(C)=O)cc1CN1c2ccc(S(N)(=O)=O)cc2CC1C (stereo not shown),12.6%
4,CCCC(=O)Nc1ccc(-c2cnc(-c3ccc(NC(=O)CCC)cc3)nc2)cc1,12.9%
5,Cc1cc(C)n(CC(=O)Nc2ccc([N+](=O)[O-])cc2)n1,2.85%
6,COc1ccc(OC)c(C2C(C(N)=O)=C(C)Nc3nc(CCCO)nn32)c1 (stereo not shown),15.5%
7,O=C(OCc1cc(-c2ccccc2)no1)c1ccc2ccccc2n1,14.7%
8,CC(=O)NCCc1cc2cc(C)c(C)cc2[nH]c1=O,9.46%
9,Cc1cc(=O)oc(C)c1C(=O)NCC(C)NC(=O)c1c(C)cc(=O)oc1C (stereo not shown),2.37%
10,C=CCOC(=O)C1=C(C)Nc2nnnn2C1c1cccs1 (stereo not shown),-5.38%
11,CC(=O)c1cccc(NC(=O)C2=CC(c3ccco3)=NS(=O)(=O)N2C)c1,15.9%
12,O=[N+]([O-])/C=C/c1c(OCc2ccccc2)ccc2ccccc12,-3.83%
13,CCCCS(=O)(=O)C1CCS(=O)(=O)C1 (stereo not shown),10.1%
14,N/C(=N\OC(=O)c1ccc(Cl)cc1)c1cccnc1,-0.596%
15,CN(Cc1ccc(OC(F)F)cc1)Cc1nc2c(Br)cc(Br)cc2c(=O)[nH]1,4.74%
16,COc1ccc(OC)c(NC(=O)CN2C(=O)NC3(CCOc4ccccc43)C2=O)c1 (stereo not shown),12%
17,CN1C(=O)C(C)(C)c2cc(S(=O)(=O)NCC(=O)NCc3ccccc3)ccc21,11.6%
18,CCOC(=O)C1CCN(C(=O)CCCn2c(=O)c3cccn3c3cccnc32)CC1,-20.4%
19,CO/N=C/C(c1ncc(C(F)(F)F)cc1Cl)S(=O)(=O)c1ccccc1 (stereo not shown),10.9%
20,CC(C)C(NC(=O)c1ccc(F)cc1)C(=O)N1CCC1 (stereo not shown),9.09%
21,CC1(C)Cc2c(sc(NC(=O)C(=O)N3CCOCC3)c2C(N)=O)CO1,16.4%
22,Cl.O=C(Cn1c(NCCCO)nc2ccccc21)c1ccc(Cl)cc1Cl,-6.22%

row,Structure (SMILES),"hERG current change (%, negative = inhibition) at 1uM"
1,CN(CC(=O)N1CCc2ccccc2C1)S(=O)(=O)c1ccc2c(c1)c(=O)n(C)c(=O)n2C,2.05%
2,CC(C)(C)N1C(=O)Cc2c1nc(N)c1c(N)nc(N3CCCCC3CO)c(C#N)c21 (stereo not shown),2.43%
3,O=C(NCc1ccccc1)c1nnc(CS(=O)(=O)c2ccccc2)o1,-2.45%
4,CC(C)c1ccc2[nH]c(O)c(N=NC(=O)c3cccc(S(=O)(=O)Nc4cccc(Cl)c4)c3)c2c1,7.59%
5,Cc1ccc(Nc2ccc(C(=O)NC3CCCCC3)cn2)cc1,1.04%
6,CCCCn1c(N)c(N(Cc2ccccc2OC)C(=O)c2c(CC)noc2C)c(=O)[nH]c1=O,10.8%
7,Cc1ccc(S(=O)(=O)NC(=O)NC(=O)N(C)S(=O)(=O)c2ccc(C)cc2)cc1,12%
8,Cl.OC(COCC1COc2ccccc2O1)CN1CCN(c2ccccc2)CC1 (stereo not shown),-24.7%
9,c1ccc(Nc2nc3ccccc3s2)cc1,18.8%
10,CCCCn1c(=O)n(C)c(=O)c2c(C(F)(F)F)cc(-c3ccncc3)nc21,-4.76%
11,O=C(NC1CCN(Cc2ccc(Cl)cc2)CC1)c1cn(-c2ccccc2)nc1-c1cccnc1,-17.7%
12,O=C(Cc1ccc(F)cc1)N1CCC(CC2CC(c3ccc(Cl)cc3)=NO2)(C(=O)NCC2CCCCC2)CC1 (stereo not shown),-9.21%
13,O=C(O)c1ccccc1SCc1nc2ccccn2c1Br,12.3%
14,CCCCOC(=O)Nc1cccc(C(C)=O)c1,0.259%
15,CN(C)C(=O)N(CCCN1CCOCC1)Cc1cccc2ccccc12,11.9%
16,COCCNC(=S)NC1CC2CCCC(C1)N2Cc1ccco1 (stereo not shown),-1.47%
17,Cc1ccc(-n2ncc3c(=O)n(CC(=O)N4CCN(c5ccccc5F)CC4)cnc32)cc1C,18.5%
18,CC/C=C/C(=O)N1CC2(CC(c3cccc(NC(=O)c4ccccc4)c3)=NO2)C[C@@H]1C(N)=O (stereo partly shown),6.02%
19,CC1CCCCN1C(=O)COc1ccc(NC(=O)c2ccco2)cc1 (stereo not shown),8.81%
